PMC7819943, “Rice protein-binding microarrays: a tool to detect cis-acting elements near promoter regions in rice”
This is one part of the list.

What follows are sequences tested against T1, OsWOX13 (Oryza sativa, UniProt Q5QMM3 1-267) (assay: protein-binding microarray (RPBM); PBS, 2% BSA, 51.3 ng/ul salmon testes DNA, 50 uM zinc acetate, 200 nM TF, 25 C, 1 h; high values mean tight binding). Details: protein: recombinant; tags: N-terminal polyhistidine and DsRed monomer fusion (pET32a); label: CyDye5-dUTP incorporated in the synthesized complementary strand; 3' TTTTT single-stranded linker to array surface; dsDNA, one strand shown.
T1 sequence: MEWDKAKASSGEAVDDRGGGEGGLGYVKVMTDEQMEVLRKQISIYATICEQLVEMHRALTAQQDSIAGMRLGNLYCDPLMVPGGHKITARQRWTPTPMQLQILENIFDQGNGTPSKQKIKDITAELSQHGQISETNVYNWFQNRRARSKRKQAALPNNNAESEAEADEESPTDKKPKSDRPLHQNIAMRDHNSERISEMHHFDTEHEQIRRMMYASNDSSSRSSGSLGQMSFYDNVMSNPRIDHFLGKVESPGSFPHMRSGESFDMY
In short: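 Transcription factors were made in E. coli BL21-CodonPlus as N-terminal fusions to a polyhistidine tag and DsRed, then purified on Ni–NTA. After primer extension with Cy5-dUTP and blocking with 2% BSA, a custom Agilent array was exposed for 1 h at 25 °C to 200 nM protein in PBS, 2% BSA, salmon testes DNA and 50 µM zinc acetate. Washed arrays were scanned on an Axon 4000B, and the binding signal is per-feature fluorescence intensity in arbitrary units.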

Row | Sequence | binding signal
1 | GTATAAAATATTAATTATGTTTTATCATCTAACAACAATACGGAGTCACCTAGTGCAG | 8450 fluorescence intensity (a.u.)
2 | ATGTTTAATCAACCTCTAAATCAATAAGATTAGTCATGTACGGAGTCACCTAGTGCAG | 3760 fluorescence intensity (a.u.)
3 | GGGTTTGCGTTCACGAGAATGATTGAGTAACGGCAGTTGGCGGAGTCACCTAGTGCAG | 5210 fluorescence intensity (a.u.)
4 | TGACACAATTAGCTTTTGATTAATCAATGGTGCTGATTGACGGAGTCACCTAGTGCAG | 28800 fluorescence intensity (a.u.)
5 | GCGATCACATGACGGTAATTAATCAATAACTAATCCAGCTCGGAGTCACCTAGTGCAG | 6280 fluorescence intensity (a.u.)
6 | GCGATCCTGAAATTAATTGCTATGATCTATTTTCGGCTGTCGGAGTCACCTAGTGCAG | 10300 fluorescence intensity (a.u.)
7 | ATTTAAATGACGGTTTCGTCCTACGTGGTACATTGACCCGCGGAGTCACCTAGTGCAG | 6700 fluorescence intensity (a.u.)
8 | CCTAATTAATCTATCATTAGCAAAATATTTACTGTAGCACCGGAGTCACCTAGTGCAG | 44400 fluorescence intensity (a.u.)
9 | TGAGATTGGAGTGTACCTATCACTGCAACCAACTTTGCTACGGAGTCACCTAGTGCAG | 9490 fluorescence intensity (a.u.)
10 | ATATATAATTTGTGAATTAGTTTTGGTTCTTTCACAAACACGGAGTCACCTAGTGCAG | 27600 fluorescence intensity (a.u.)
11 | GACTTCCAATTTACTATGTTTATTACAAGCCTATCCACTACGGAGTCACCTAGTGCAG | 5180 fluorescence intensity (a.u.)
12 | TTTGATTCCAGTCAATAGATTAACTAGTCAACTTTACTAACGGAGTCACCTAGTGCAG | 16500 fluorescence intensity (a.u.)
13 | TTAATCAAACCTTCAATTTTAACGTGTAACTAAACACAGCCGGAGTCACCTAGTGCAG | 3770 fluorescence intensity (a.u.)
14 | CGGTGGAGATGGAGATTAATTGAGCTCGAGTGTGAGACTACGGAGTCACCTAGTGCAG | 14500 fluorescence intensity (a.u.)
15 | GAGGATTTGCTAATCAAATTCATCATGAACATTGGTTGGACGGAGTCACCTAGTGCAG | 13000 fluorescence intensity (a.u.)
16 | GTACCAATTTAATTTATGTATCAATAAGAACATATCATGTCGGAGTCACCTAGTGCAG | 22800 fluorescence intensity (a.u.)
17 | TTAACTTAATTTGGAAGTAAATAAAGGCTCCTCCAAAACTCGGAGTCACCTAGTGCAG | 6680 fluorescence intensity (a.u.)
18 | TTTATGTAATTATCATTTAATTTATTGTGCCTTGATTCATCGGAGTCACCTAGTGCAG | 24400 fluorescence intensity (a.u.)
19 | GCTCCAATTGACTGTTCCTTGATGCTCATACCATCTTTGTCGGAGTCACCTAGTGCAG | 21000 fluorescence intensity (a.u.)
20 | AATAATTTGTCTGCGGAAGCTAGCTAGGACCACGGCCATTCGGAGTCACCTAGTGCAG | 8770 fluorescence intensity (a.u.)
21 | GTCATGTGATTTGTAATAATATAAAACAGAGAGAGTACACCGGAGTCACCTAGTGCAG | 25000 fluorescence intensity (a.u.)
22 | GATTTAATTTATTTTGGTAATGATTTGTGGATGATTTTGGCGGAGTCACCTAGTGCAG | 31600 fluorescence intensity (a.u.)
23 | AGCAATTATCTCGTTCATCATCATCACCATGATGGCATTGCGGAGTCACCTAGTGCAG | 8710 fluorescence intensity (a.u.)
